# Results reported in the supplement of paper PMC12632987.
# In all, about 2,300 sequences were measured (“median log2 fold change of GCK-ALFA target abundance (FLAG IP / Myc IP barcode read proportion)”: median about 0.095, lowest 2% from about -0.47 on). Some of the results follow.
# B1: LC3A_3_1444 (protein)
# chain: MEEILEEARKVAEEIGLSEEAIEAVLRLIKKALEAGEVEGAKELIEVLKESKDVPSEEILEIAERALRRIEEEGVSVKEAIEEFIEELRVLRLEKEIEEL
# B2: LC3A_3_1875 (protein)
# chain: MDEKIEETIELLKEAGASEETIEKFEEVAELLKERGYEEALETLIEEVKKLAGTSDEILLDFLEEVLEVLKTKDLSEEELIEEIKRIARLALNEAEIIEL
# B3: LC3A_28_1102 (protein)
# chain: SELEENLEKALAEVKKAAERGEEVLVTINVGEDATEEDLEKLKETLEEMAEIAKDLPRLTVIINLDGEGAEEKANILGEHAEELEKKYPNLTIIIALPED
# B4: LC3A_3_1898 (protein)
# chain: MDERVAATLERLRAAGASEETLAAFERVAKKLKERGYDEALETLIEELERLAGLPSELLLAFLEEVLEVLETEDLSEEELIERIKEIARLTLNEGEIIEL
# B5: LC3A_3_1863 (protein)
# chain: MEEIKEEILELLRSLGRSEETIEAAEELANALIERGYEEALKTLLEELKKLADVPDEILLAMFEDILRALKEENLNEEEVIKLIKEEARIARNEHEIEEL
# B6: LC3A_free_8_2448 (protein)
# chain: KTKEVVNKVTALLDELEEEVTKKAKELGLSRLDILEMELLIGSAKIELISNVDKSIEEIKKIAEEELEEIIEFAKTLSEELAEIVEKYKEKILKLIEEAL
# B7: LC3A_28_977 (protein)
# chain: SAIEEALAKVLAEAEAAAAAGEPAVITITVPGDATEEEIEKVIEALRRVAEILKDVPGAAIIIDLDGDVSEENQQKLMEAAEEVEEKYPNITVIIALDEK
# B8: LC3A_3_1818 (protein)
# chain: LEERVEEAERLLRERGASEETLEAFREAAEALRERGYEKALETLIELARELADLPSELLLALFEDVLELVETSDDDEETITARIKEIAATHRNEAEIIEL
# B9: LC3A_28_856 (protein)
# chain: STTDASIAAARAELAAAVAAGTEVTITITVTEDVTEAQVERVIAAIEEAAAASAQVPRLDVIVDVDGKVDPAHLKRIAEAGDEASERNPNLTVIIALDEE
# B10: LC3A_45_1980 (protein)
# chain: MYEATVDILVPRELAEKAKAAALEAMDEIEKKYGDKVKVDRERLDASYEASKDEEDVYLEVRIFAPNKELALDAADELEDYLREKLGDRVAAIISVKEVP
# B11: LC3A_28_1134 (protein)
# chain: SAAVEAAKAQLDKDAEADKDKEEVYLTVNVSGTITVEEAKEIMDYVEEIVEKFKDKKKIYVVVNANEPISQEVLDTILDGGERLEKKFPNVSVIVALPEG
# B12: LC3A_3_1615 (protein)
# chain: LEELLKEAIEKLKEAGKPEEVLELLKEVVELLKEKGYEEAAKTLLEEVIENVDLSSDIMLDFLEEVKYLVETENLSEEELTERIKELARIARSEQEIIEL
# B13: LC3A_28_1165 (protein)
# chain: SELEESIEKALKEAKEAAAKGVPATIVIKVPGGITQEETEKVIKAMEEIAELLKDIPGAAIVIDVDSGVKQENLDKLMKKAEEIEKKYPNITVIIALDED
# B14: LC3A_free_8_2522 (protein)
# chain: SNKKLTEAAVEILDELEKKVVELLKSKGASRLEILEAELLIGSIIAEVISLVDKSPEEILKSIREGLERLVKELEKYKEEIKKLAEEALKKIEEKAKELE
# B15: LC3A_free_46_2350 (protein)
# chain: VKAEIEIDLLADDEETLKAAVEAIKEAIKEIAKKYNLEVEIEEEIEKLPDGSYYARINITLKGKDLEDVKAAVNELINKIEEIAKKYGVSAVISYEIKDI
# B16: LC3A_28_720 (protein)
# chain: GSLDASIEAAIAEAKAAAAAGEEAVIEITVPGDATEEDIEKVIKALEEIAEITKDLKRTHIIINVDGGVKQEHIDKLLDAAEEIEKKYPNVTVIFALDEE
# B17: LC3A_28_995 (protein)
# chain: SELEKQLEEALKEAKKAKEKGEPTVITIKIPGSANKEDIELVIKTLEEIAEILKDVKGSAIIIDIDGKLDEELKNLIIDKAEEIEEKYPNITVIIALDED
# B18: LC3A_28_1173 (protein)
# chain: SSVEENIEKALEEARKAKERKEPTVITINVPSGATQEEIDKVIEAMREIAELLKDIPGSAIIINVAGGVKQEHIDKLMEEAEEIEEKYPNVSVIIALDED
# B19: LC3A_127_174 (protein)
# chain: EKEKLLKEIEKLAEKILELLDKPDFDVEEIEKLLEKIIKLAKELLKLDPSAEPILETAEAAKKTLEQYKKAPEEQKEDLREHLSMLVEGLLIEVLSLLLK
# Molecular target: MAP1LC3A, Q9H492
# Test: median log2 fold change of GCK-ALFA target abundance (FLAG IP / Myc IP barcode read proportion) (log2 ratio); each designed protein is fused to an ALFA-tag nanobody in HEK293 cells to bring the named protein to FLAG-tagged glucokinase (GCK); Myc marks an untargeted standard; higher = target protein stabilised (more abundant)
# Conditions: target protein: 3xFLAG-MCP-GCK-ALFA reporter; HEK293 landing pad (RPLP)
# In short: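 Binders fused to an ALFA nanobody were recombined as a library into HEK293 landing-pad cells, which were induced with 2 μg mL^−1 doxycycline and then transfected to express a FLAG-tagged target and a Myc-tagged standard. After 48 h, circular RNA barcodes recovered by anti-FLAG and anti-Myc immunoprecipitation of lysates were reverse transcribed, amplified and sequenced. Each binder's target abundance is the median log2 ratio of FLAG to Myc barcode read proportions, from barcodes present at ≥10^−7 in both replicates, binders carrying ≥3 barcodes per replicate, a 10^−6 pseudocount and pooled replicates.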
row,Binder,median log2 fold change
1,B1,0.164
2,B2,0.289
3,B3,0.205
4,B4,0.245
5,B5,0.246
6,B6,-0.109
7,B7,-0.133
8,B8,0.227
9,B9,0.255
10,B10,0.132
11,B11,-0.163
12,B12,0.144
13,B13,0.448
14,B14,0.213
15,B15,0.165
16,B16,-0.195
17,B17,0.0283
18,B18,0.17
19,B19,0.238
